The antibiotic and cytotoxicity screens of Wong et al. (2023)
Some of the results follow.

Columns and labels:
HSkMC = human skeletal muscle cells; assay: cytotoxicity call (relative viability < 0.9); details: 10 µM
HepG2 = assay: cytotoxicity call (relative viability < 0.9); details: 10 µM
S. aureus RN4220 = assay: growth inhibition call (relative growth <= 0.2); details: 50 µM

SMILES	cytotoxicity call (HSkMC)	cytotoxicity call (HepG2)	growth inhibition call (S. aureus RN4220)
C[C@@H]1CCCCO[C@@H](CN(C)Cc2ccc(C(=O)Nc3ccccc3N)cc2)[C@@H](C)CN([C@H](C)CO)C(=O)c2cc(NS(=O)(=O)c3cccs3)ccc2O1	inactive	active	inactive
C[C@H]1CCCCO[C@H](CN(C)C(=O)Nc2ccc(F)cc2)[C@@H](C)CN([C@@H](C)CO)C(=O)c2cc(NC(=O)c3ccccc3)ccc2O1	inactive	inactive	inactive
C=CCOC(=O)[C@H]1[C@@H]2C(=O)O[C@@H](c3ccccc3)[C@@H](c3ccccc3)N2[C@@H](c2ccc(OCCOC(=O)[C@H]3C[C@H]4C(=O)N[C@@H](CCCCNC(C)=O)C(=O)N4[C@H]3c3ccc(O)cc3)cc2)[C@]12C(=O)Nc1ccc(I)cc12	inactive	inactive	inactive
C[C@@H]1CCCCO[C@H](CN(C)Cc2ccc(C(F)(F)F)cc2)[C@H](C)CN([C@@H](C)CO)C(=O)c2cc(NS(=O)(=O)c3ccccc3)ccc2O1	inactive	active	inactive
CC(C)N=c1cc2n(-c3ccc(Cl)cc3)c3ccccc3nc-2cc1Nc1ccc(Cl)cc1	inactive	active	inactive
Cc1ccc(S(=O)(=O)Nc2ccc3c(c2)C(=O)N([C@@H](C)CO)C[C@H](C)[C@@H](CN(C)C(=O)CCC(F)(F)F)OCCCC[C@@H](C)O3)cc1	inactive	inactive	inactive
C[C@@H]1CN([C@H](C)CO)C(=O)c2cc(C#Cc3ccncc3)cnc2O[C@H]1CN(C)C(=O)c1ccccc1F	inactive	inactive	inactive
C[C@@H]1CN([C@@H](C)CO)C(=O)Cc2cc(NS(=O)(=O)c3cccs3)ccc2O[C@H]1CN(C)S(=O)(=O)c1ccccc1	inactive	inactive	inactive
